# Measured values published in PubChem BioAssay AID504333 (National Center for Advancing Translational Sciences (NCATS), 2011).
# About 16,000 (4.4%) of roughly 360,000 compounds were called active. Inconclusive results, whose numbers are uncertain, are shown with a selection of clear calls. Calls come from the whole dose curve; as a rule, active = well fitted inhibition curve with a large enough effect; inconclusive = small, poorly fitted or top-dose-only effect; inactive = no such curve, though single readings can be large or run the other way. Potencies of inconclusive entries are doubtful fits and often do not repeat. Some structures have more than one record in an assay (separate samples or runs), and their calls can disagree.
# Target: Bromodomain adjacent to zinc finger domain protein 2B (Homo sapiens) (UniProt Q9UIF8)
# Assay: qHTS Assay for Inhibitors of BAZ2B; note: nearly all actives have a fitted effect of over 60% in size
# Conditions: AlphaScreen BAZ2B-H3K14Ac peptide displacement; activity change, negative = inhibition: at 114 µM (top of the series) unless noted
# Summary of the method: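 In this displacement format the biotinylated H3(5-23) peptide acetylated at Lys14 serves as ligand at 50 nM, with BAZ2B at 50 nM in PBS pH 7.4 containing 0.01% Tween-20. Donor and acceptor beads are 10 ug/mL final.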
# % is set by controls: 0 for no effect and ±100 for the full control effect; potency is the fitted concentration of half-maximal effect; tags give direction and shape of the fitted curve.
# Sequence of UniProt Q9UIF8 (Q9UIF8 whole entry, looked up, the tested form may be a part): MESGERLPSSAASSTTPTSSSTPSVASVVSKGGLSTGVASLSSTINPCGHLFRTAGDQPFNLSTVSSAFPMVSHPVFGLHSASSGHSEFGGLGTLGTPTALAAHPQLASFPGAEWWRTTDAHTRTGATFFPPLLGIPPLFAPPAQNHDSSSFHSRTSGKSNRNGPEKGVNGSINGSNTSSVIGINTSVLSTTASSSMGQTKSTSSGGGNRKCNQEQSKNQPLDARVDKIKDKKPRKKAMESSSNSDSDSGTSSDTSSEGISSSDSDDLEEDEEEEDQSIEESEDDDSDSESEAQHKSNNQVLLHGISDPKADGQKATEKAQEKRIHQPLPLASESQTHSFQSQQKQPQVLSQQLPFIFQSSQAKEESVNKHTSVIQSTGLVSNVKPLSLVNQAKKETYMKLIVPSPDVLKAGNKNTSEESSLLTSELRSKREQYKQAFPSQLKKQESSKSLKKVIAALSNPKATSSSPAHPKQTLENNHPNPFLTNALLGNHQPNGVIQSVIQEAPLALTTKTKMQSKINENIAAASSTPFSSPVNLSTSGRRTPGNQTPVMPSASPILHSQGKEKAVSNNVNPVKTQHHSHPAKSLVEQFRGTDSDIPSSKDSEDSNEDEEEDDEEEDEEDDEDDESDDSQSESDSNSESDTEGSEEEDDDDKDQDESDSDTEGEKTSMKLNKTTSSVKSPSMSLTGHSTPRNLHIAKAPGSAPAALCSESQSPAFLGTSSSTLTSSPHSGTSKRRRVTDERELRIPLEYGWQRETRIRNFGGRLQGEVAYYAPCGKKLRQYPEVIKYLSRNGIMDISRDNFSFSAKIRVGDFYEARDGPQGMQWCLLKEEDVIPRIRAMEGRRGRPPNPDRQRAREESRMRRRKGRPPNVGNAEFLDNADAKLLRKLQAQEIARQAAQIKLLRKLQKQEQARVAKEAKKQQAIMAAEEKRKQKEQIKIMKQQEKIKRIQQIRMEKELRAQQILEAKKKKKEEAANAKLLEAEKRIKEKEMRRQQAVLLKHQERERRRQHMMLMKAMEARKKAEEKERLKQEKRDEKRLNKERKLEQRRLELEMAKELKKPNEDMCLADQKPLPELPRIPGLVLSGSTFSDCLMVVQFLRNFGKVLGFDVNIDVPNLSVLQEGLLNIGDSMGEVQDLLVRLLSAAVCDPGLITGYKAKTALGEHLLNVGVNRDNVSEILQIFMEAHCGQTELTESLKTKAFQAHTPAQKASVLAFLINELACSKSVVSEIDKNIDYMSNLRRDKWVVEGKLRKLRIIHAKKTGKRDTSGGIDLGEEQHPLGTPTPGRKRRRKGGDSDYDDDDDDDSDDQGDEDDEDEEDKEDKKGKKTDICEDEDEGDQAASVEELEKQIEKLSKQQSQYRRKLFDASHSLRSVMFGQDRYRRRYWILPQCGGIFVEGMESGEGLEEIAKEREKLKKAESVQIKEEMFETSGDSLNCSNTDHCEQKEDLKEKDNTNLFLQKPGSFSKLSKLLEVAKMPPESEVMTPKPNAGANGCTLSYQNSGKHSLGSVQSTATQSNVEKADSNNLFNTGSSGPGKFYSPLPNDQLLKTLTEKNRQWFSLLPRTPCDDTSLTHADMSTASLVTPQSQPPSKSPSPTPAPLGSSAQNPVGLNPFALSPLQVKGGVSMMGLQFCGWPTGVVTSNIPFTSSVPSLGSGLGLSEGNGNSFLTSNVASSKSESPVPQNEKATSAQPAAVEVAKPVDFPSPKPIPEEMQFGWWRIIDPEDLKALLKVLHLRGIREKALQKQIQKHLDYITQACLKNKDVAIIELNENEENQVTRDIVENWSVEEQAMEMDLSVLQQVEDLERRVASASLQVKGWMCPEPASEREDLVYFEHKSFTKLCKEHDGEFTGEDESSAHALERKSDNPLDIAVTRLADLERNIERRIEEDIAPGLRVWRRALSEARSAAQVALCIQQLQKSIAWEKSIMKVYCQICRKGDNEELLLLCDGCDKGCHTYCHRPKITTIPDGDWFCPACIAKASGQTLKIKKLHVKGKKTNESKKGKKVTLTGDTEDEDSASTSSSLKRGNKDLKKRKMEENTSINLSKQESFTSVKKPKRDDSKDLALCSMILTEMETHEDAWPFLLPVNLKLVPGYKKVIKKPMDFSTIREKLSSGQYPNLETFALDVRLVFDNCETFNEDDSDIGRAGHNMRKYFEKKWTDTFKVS
SMILES,Potency,"activity change, negative = inhibition"
CCOC(=O)C(C)On1c(-c2cccc(Cl)c2)nc2ccc([N+](=O)[O-])cc21 (stereo not given),"inconclusive: 79.4 µM [inhibitor, single point]",
CCNC(=S)N/N=C(\C)c1cc2ccccc2o1,"inconclusive: 89.1 µM [inhibitor, single point]",
Cc1c(C(=O)Nc2ccc(-n3c(C)nc4ccccc4c3=O)cc2)cccc1[N+](=O)[O-],,inactive: -7.26%
CCCC(=O)Nc1nnc(S(=O)(=O)N2CCCCCC2)s1,active: 14.1 µM,
COc1ccc(NC(=O)CSc2nnnn2C2CC2)cc1S(=O)(=O)N1CCOCC1,"inconclusive: 89.1 µM [inhibitor, single point]",
Cc1ccc(Cl)cc1NC(=O)Cn1c(=O)n(CCC(=O)NCc2ccc3c(c2)OCO3)c(=O)c2sccc21,"inconclusive: 70.8 µM [inhibitor, single point]",
COc1ccc(OC)c(NC(=O)c2cc(S(=O)(=O)N3CCCCC3)c[nH]2)c1,,inactive: -4.35%
CCc1ccc(NC(=O)[C@@H](NC(=O)[C@@H]2Cc3ccccc3CN2)C(C)CC)cc1 (stereo not given in full),"inconclusive: 56.2 µM [inhibitor, partial curve, poor fit]",
COc1cccc(CN2CCN(c3cccc(C(F)(F)F)c3)CC2)c1OC,"inconclusive: 79.4 µM [inhibitor, single point]",
COc1ccc(C)cc1NC(=O)NC(C)c1c(-n2cccc2)sc(C)c1C (stereo not given),"inconclusive: 28.2 µM [inhibitor, full curve]",
CCN(C(=O)c1sc2nc3n(c(=O)c2c1C)CCCCC3)c1ccc(OC)cc1,active: 35.5 µM,
[O-]/C(=C(\C(=S)Nc1cccc2ccccc12)[n+]1cccc(CO)c1)c1ccc(Cl)s1,active: 31.6 µM,
COc1ccc(OC)c(NC(=O)Cn2c(CCC(=O)O)ccc2-c2cccs2)c1,"inconclusive: 89.1 µM [inhibitor, single point]",
COc1ccc(NC(=S)NCCCCCC(=O)C[N+](=O)[O-])cc1,"inconclusive: 50.1 µM [inhibitor, partial curve]",
COc1ccc(NC(=O)CSc2c(C)nn(-c3nnc(C)c(=O)[nH]3)c2C)cc1,active: 31.6 µM,
Cc1nc2ccn(Cc3cccs3)c(=O)c2cc1C(=O)N1CCN(c2ccccc2F)CC1,"inconclusive: 89.1 µM [inhibitor, single point]",
Cc1ccc(C(=O)NCC(c2ccco2)N2CCc3ccccc32)cc1 (stereo not given),"inconclusive: 89.1 µM [inhibitor, single point]",
Cc1ccc(NS(=O)(=O)c2ccc3[nH]c4c(c3c2)CCCC4)cc1N(C)C,active: 31.6 µM,
O=C(Nc1ccc(-n2nncc2-c2ccco2)cc1)c1cc2ccccc2oc1=O,"inconclusive: 50.1 µM [inhibitor, partial curve]",
COC(=O)c1c(NC(=O)COC(=O)c2ccc(Cl)nc2)sc(C)c1C,,inactive: -1.58%
O=C1c2ccccc2NC(c2cccc(O)c2)N1O (stereo not given),,inactive: -16.2%
COc1cccc(CNCc2cccnc2)c1OCc1ccccc1,"inconclusive: 89.1 µM [inhibitor, single point]",

SMILES,Potency,"activity change, negative = inhibition"
COc1ccc(N2CCN(C(=O)CSc3nnc4c(C)cc5ccc(C)c(C)c5n34)CC2)cc1,"inconclusive: 89.1 µM [inhibitor, single point]",
COc1ccc(CCNC(=S)NC(=O)/C=C/c2ccc(C)cc2)cc1OC,"inconclusive: 79.4 µM [inhibitor, single point]",
COc1ccc(-c2cn(-c3ccccc3)nc2C(=O)O)cc1OC,,inactive: -32.4%
CC1(OC(=O)CCc2ccccc2)C(=O)C=C2C=C(c3ccc(C#N)cc3)N(Cc3ccccc3)C=C2C1=O (stereo not given),"inconclusive: 56.2 µM [inhibitor, partial curve]",
O=C(COC(=O)CCc1nc2ccccc2s1)Nc1ncc(Cl)cc1Cl,"inconclusive: 89.1 µM [inhibitor, single point]",
N=c1c2c(-c3ccccc3)c(-c3ccccc3)n(Cc3ccccc3)c2ncn1CCCO,"inconclusive: 44.7 µM [inhibitor, partial curve]",
COc1ccc(C(CCNCc2ccccc2F)c2ccc(F)cc2)cc1 (stereo not given),"inconclusive: 89.1 µM [inhibitor, single point]",
O=C(CCC(=O)c1cccs1)Nc1ncccc1O,active: 56.2 µM,
O=C(CN1CCc2ccccc21)Nc1ccc2c(c1)OCO2,"inconclusive: 79.4 µM [inhibitor, single point]",
COc1cc(NC(=O)c2ccccc2)c(OC)cc1NC(=O)Cc1ccc(Br)cc1,,inactive: -7.17%
Cn1c(=O)c2c(nc(SCC(=O)Nc3ccccc3F)n2Cc2ccc(Cl)cc2)n(C)c1=O,"inconclusive: 79.4 µM [inhibitor, single point]",
O=C(NCc1ccco1)c1sc(=S)n2c1[nH]c(=O)c1ccccc12,"inconclusive: 31.6 µM [inhibitor, partial curve]",
Cc1ccc(CN2CCCN(C)CC2)c(C)c1,active: 56.2 µM,
CN1CCN(CC#CCC(O)(c2ccccc2)C2CCCC2)CC1 (stereo not given),"inconclusive: 79.4 µM [inhibitor, single point]",
CC(=O)Oc1c(C)c2c3c(c1OC(C)=O)[C@@H](C)CC[C@@H]3[C@@H](C)C[C@H]2C=C(C)C,,inactive: 7.48%
C[C@@]12C(=O)N(CC3CC3)CC(=O)N1[C@H](/C=C/c1ccccc1)[C@@H]1C(=O)N(c3ccccc3)C(=O)[C@@H]12,"inconclusive: 79.4 µM [inhibitor, single point]",
O=C(NNC(=O)c1ccccc1O)c1ccc(Cl)c(S(=O)(=O)N2CCCCC2)c1,,inactive: 4.69%
COc1cccc(CN(C)C(=O)c2cc(-c3ccc(F)cc3)nc3ccccc23)c1,"inconclusive: 50.1 µM [inhibitor, partial curve]",
O=c1cc(/N=C/c2coc3cc(Br)ccc3c2=O)[nH]c(=S)[nH]1,"inconclusive: 70.8 µM [inhibitor, single point]",
Cc1cccc2c1N(C(=O)c1ccco1)C(C)(C)c1ssc(=S)c1-2,"inconclusive: 5.01 µM [inhibitor, full curve, poor fit]",
Cc1ccc2c(c1)c1c(n2CC(O)Cn2c(C)nc3ccccc32)/C(=N\O)CCC1 (stereo not given),"inconclusive: 44.7 µM [inhibitor, partial curve]",
NC(=O)c1c(NC(=O)CN2C(=O)NC(Cc3ccccc3)C2=O)sc2c1CCC2 (stereo not given),"inconclusive: 1.41 µM [inhibitor, full curve, poor fit]",

SMILES,Potency,"activity change, negative = inhibition"
C=CCn1c(-c2ccc(Cl)cc2)cnc1SC(C)C(=O)NC(N)=O (stereo not given),,inactive: -34.5%
CN1CCC(N(C)CC(O)c2ccccc2)CC1 (stereo not given),active: 50.1 µM,
CCc1nc(N2CCN(C(=O)c3ccccc3)CC2)c2c3c(sc2n1)CCCC3,"inconclusive: 35.5 µM [inhibitor, partial curve]",
Cc1ccc(OCc2ccc(-c3nc(C#N)c(NCc4cccnc4)o3)o2)cc1,active: 17.8 µM,
N#Cc1c(-c2ccccc2)cc(C2CC2)nc1SCC(=O)O,,inactive: -32.4%
CC1=N/C(=C\c2ccc([N+](=O)[O-])cc2)C(=O)N1c1cc(Cl)ccc1C,"inconclusive: 3.16 µM [inhibitor, full curve, poor fit]",
COc1cc(/C=N/NC(=O)COc2ccccc2[N+](=O)[O-])ccc1OC(=O)c1ccco1,"inconclusive: 79.4 µM [inhibitor, single point]",
CCc1ccccc1NC(=O)C1CCCN(S(=O)(=O)c2ccc3c(c2)CC(C)N3C(C)=O)C1 (stereo not given),"inconclusive: 89.1 µM [inhibitor, single point]",
N#Cc1cccc(NC(=O)CSc2sc3c(O)cc(=O)[nH]c3c2C#N)c1,"inconclusive: 50.1 µM [inhibitor, partial curve, poor fit]",
Cc1cccc(NC(=O)CSCC(=O)Nc2ccccc2N2CCCC2)c1,active: 35.5 µM,
CC[N+]1(CC(O)COC2CC(C)CC(C)(C)C2)CCOCC1 (stereo not given),,inactive: -17.4%
CCC(=Nc1ccc(N)cc1)C1=C(O)C(C(=O)OC)C(C)(C)CC1=O (stereo not given),"inconclusive: 79.4 µM [inhibitor, single point]",
COc1cc(CNCc2c[nH]c3ccccc23)cc(OC)c1,active: 56.2 µM,
COc1ccccc1N1CCN(CCCNC(=O)c2cnn(-c3cccc(Cl)c3)c2C2CCN(C(=O)OC(C)(C)C)CC2)CC1,"inconclusive: 39.8 µM [inhibitor, single point]",
CCOc1ccc(CNC(=O)Cn2cc3c(n2)-c2c(oc(C(=O)N4CCOCC4)c2C)CC3)cc1,"inconclusive: 79.4 µM [inhibitor, single point]",
O=C(N/N=C/c1cccc([N+](=O)[O-])c1)c1cc(-c2ccc3c(c2)OCO3)n[nH]1,"inconclusive: 89.1 µM [inhibitor, single point]",
CC(=O)Nc1ccccc1NC(=O)C/C(C)=N/NC(=O)C(=O)N1CCCCC1,,inactive: -11%
C=CCN(C(=O)CSc1nc2c(sc3ccccc32)c(=O)n1CCN(CC)CC)c1ccccc1,"inconclusive: 25.1 µM [inhibitor, full curve, poor fit]",
CC(=O)Nc1c(O)nc(SCC(=O)Nc2nnc(SCc3ccccc3)s2)[nH]c1=O,"inconclusive: 50.1 µM [inhibitor, partial curve]",
CC(C)OCC(O)CS(=O)(=O)Cc1ccccc1 (stereo not given),"inconclusive: 28.2 µM [inhibitor, single point]",
COc1ccc(C(=O)OC2=C(C(=O)c3ccccc3)N(C)S(=O)(=O)c3ccccc32)cc1OC,"inconclusive: 50.1 µM [inhibitor, partial curve, poor fit]",
